Reference: a collection of fitness landscapes (doi:10.1016/j.celrep.2020.107928)
Whole data set: some 81,000 sequences, median “one-hybrid fitness for binding NBS DNA” near -0.1, cut for the highest 2% near 0.36. The list shows a part of the results.

B1: Caulobacter ParB omega fusion; a variant is named by its letters at X, in order, B8GW30 (parent)
chain: MESVVVGEPGMSEGRRGLGRGLSALLGEVDAAPAQAPGEQLGGSREAPIEILQRNPDQPRRTFREEDLEDLSNSIREKGVLQPILVRPSPDTAGEYQIVAGERAWRAAQRAGLKTVPIMVRELDDLAVLEIGIIENVQRADLNVLEEALSYKVLMEKFERTQENIAQTIGKSXSHVANXMRLLXLPDEVQSYLVSGELTAXHARAIAAAADPVALAKQIIEGGLSVRETEALARKAPNLSAGKSKGGRPPRVKDTDTQALESDLSSVLGLDVSIDHRGSTGTLTITYATLEQLDDLCNRLTRGI

Variants of: B1
Test: one-hybrid fitness for binding NBS DNA (the Noc-binding site; scaled: cognate 1, non-cognate 0); higher = stronger binding
Details: with NBS DNA site
Summary of the method: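 Bacterial one-hybrid selection in E. coli USO rpoZ- hisB- pyrF- with a HIS3 reporter carrying the site 19 bp from the promoter, screening Caulobacter ParB libraries with four specificity codons randomised (NNS). Cells grew 48 hours at 37°C on M9-minus-histidine plus 0.1 mM IPTG and 5 mM 3-AT. Plasmids before and after selection were Illumina-sequenced, three replicate libraries pooled, and variants under 10 reads dropped. Fitness is the log change in variant-to-wild-type read ratio, rescaled to cognate 1, non-cognate 0.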

Row | Variant | one-hybrid fitness for binding NBS DNA
1 | YKYC | ≤ 0.2
2 | PVQE | ≤ 0.2
3 | RKSW | ≤ 0.2
4 | PLIP | ≤ 0.2
5 | RWCI | ≤ 0.2
6 | CCRS | ≤ 0.2
7 | RQMK | ≤ 0.2
8 | MSFS | ≤ 0.2
9 | ECVG | ≤ 0.2
10 | GEHG | ≤ 0.2
11 | LEHE | ≤ 0.2
12 | RPTP | ≤ 0.2
13 | YKMG | ≤ 0.2
14 | PIRS | ≤ 0.2
15 | HCSR | ≤ 0.2
16 | TLRM | ≤ 0.2
17 | RLEN | ≤ 0.2
18 | SPLV | ≤ 0.2
19 | PATV | ≤ 0.2
20 | MGKT | ≤ 0.2
21 | DSSC | ≤ 0.2
22 | WLYT | ≤ 0.2
23 | EWEG | ≤ 0.2
24 | REAC | ≤ 0.2
25 | PQQL | ≤ 0.2

Row | Variant | one-hybrid fitness for binding NBS DNA
26 | PWNV | ≤ 0.2
27 | ECRT | ≤ 0.2
28 | PIHC | ≤ 0.2
29 | EHPG | ≤ 0.2
30 | FAQS | ≤ 0.2
31 | QVCH | ≤ 0.2
32 | INHC | ≤ 0.2
33 | SMRL | ≤ 0.2
34 | GVRT | ≤ 0.2
35 | MSNI | ≤ 0.2
36 | HSES | ≤ 0.2
37 | DPHM | ≤ 0.2
38 | HALC | ≤ 0.2
39 | YTNS | ≤ 0.2
40 | PTMS | ≤ 0.2
41 | RKDD | ≤ 0.2
42 | KHER | ≤ 0.2
43 | LNDF | ≤ 0.2
44 | MFAS | ≤ 0.2
45 | RYRS | 0.572
46 | PAFS | ≤ 0.2
47 | KMSC | ≤ 0.2
48 | STTF | ≤ 0.2
49 | LTEG | ≤ 0.2
50 | LWGY | ≤ 0.2

Row | Variant | one-hybrid fitness for binding NBS DNA
51 | ADGT | ≤ 0.2
52 | QLCP | ≤ 0.2
53 | PTAK | ≤ 0.2
54 | WSWF | ≤ 0.2
55 | THES | ≤ 0.2
56 | SEKV | ≤ 0.2
57 | YNAR | ≤ 0.2
58 | NSTL | ≤ 0.2
59 | QQTL | ≤ 0.2
60 | CHMY | ≤ 0.2
61 | SNEL | ≤ 0.2
62 | YQFG | ≤ 0.2
63 | HRTH | ≤ 0.2
64 | RCNP | ≤ 0.2
65 | ILHN | ≤ 0.2
66 | LADW | ≤ 0.2
67 | DKTT | ≤ 0.2
68 | CHVW | ≤ 0.2
69 | AIVY | ≤ 0.2
70 | TGLP | ≤ 0.2
71 | MYMS | ≤ 0.2
72 | IKAT | ≤ 0.2
73 | YIRF | ≤ 0.2
74 | KYAS | ≤ 0.2
75 | QMCC | ≤ 0.2

Row | Variant | one-hybrid fitness for binding NBS DNA
76 | ITSQ | ≤ 0.2
77 | NINW | ≤ 0.2
78 | GSWA | ≤ 0.2
79 | YHHM | ≤ 0.2
80 | PIRE | ≤ 0.2
81 | GDTY | ≤ 0.2
82 | WTPC | ≤ 0.2
83 | CRVI | ≤ 0.2
84 | ATDN | ≤ 0.2
85 | QENY | ≤ 0.2
86 | HMAM | ≤ 0.2
87 | TGTP | ≤ 0.2
88 | LKVG | ≤ 0.2
89 | RIDR | ≤ 0.2
90 | DLFT | ≤ 0.2
91 | SPKM | ≤ 0.2
92 | TLQN | ≤ 0.2
93 | AAAA | ≤ 0.2
94 | ARYR | ≤ 0.2
95 | TFDR | ≤ 0.2
96 | WKWG | ≤ 0.2
97 | TQVE | ≤ 0.2
98 | WGAG | ≤ 0.2
99 | MFHR | ≤ 0.2
100 | RIKD | ≤ 0.2

Row | Variant | one-hybrid fitness for binding NBS DNA
101 | AQRS | ≤ 0.2
102 | ASPT | ≤ 0.2
103 | CLTF | ≤ 0.2
104 | PNFW | ≤ 0.2
105 | PWSY | ≤ 0.2
106 | QYCN | ≤ 0.2
107 | AADV | ≤ 0.2
108 | LRVM | ≤ 0.2
109 | HHMC | ≤ 0.2
110 | GDLS | ≤ 0.2
111 | AQFR | ≤ 0.2
112 | QKYL | ≤ 0.2
113 | NPSF | ≤ 0.2
114 | RWVV | ≤ 0.2
115 | SDDH | ≤ 0.2
116 | LNNV | ≤ 0.2
117 | QFSR | ≤ 0.2
118 | QSKF | 0.29
119 | LELR | ≤ 0.2
120 | CTSM | ≤ 0.2
121 | RMIR | 0.253
122 | SEPL | ≤ 0.2
123 | YVQV | ≤ 0.2
124 | QDLL | ≤ 0.2
125 | VYGS | ≤ 0.2

Row | Variant | one-hybrid fitness for binding NBS DNA
126 | QTPG | ≤ 0.2
127 | NRWG | ≤ 0.2
128 | ILAL | ≤ 0.2
129 | RPTD | ≤ 0.2
130 | QKGR | 0.616
131 | KMWY | ≤ 0.2
132 | NAYL | ≤ 0.2
133 | FNRW | ≤ 0.2
134 | WAAR | ≤ 0.2
135 | MGRA | ≤ 0.2
136 | PHGR | ≤ 0.2
137 | AAES | ≤ 0.2
138 | TPQT | ≤ 0.2
139 | LYWW | ≤ 0.2
140 | EDAT | ≤ 0.2
141 | PREM | ≤ 0.2
142 | ARHM | ≤ 0.2
143 | LYHT | ≤ 0.2
144 | KMWT | ≤ 0.2
145 | HSDG | ≤ 0.2
146 | ISMH | ≤ 0.2
147 | VPVC | 0.222
148 | TACW | ≤ 0.2
149 | EDYM | ≤ 0.2
150 | AGFR | ≤ 0.2

Row | Variant | one-hybrid fitness for binding NBS DNA
151 | TSME | ≤ 0.2
152 | RSAN | ≤ 0.2
153 | CLAV | ≤ 0.2
154 | WDCT | ≤ 0.2
155 | PITW | ≤ 0.2
156 | QDAE | ≤ 0.2
157 | IRDR | ≤ 0.2
158 | GELY | ≤ 0.2
159 | LPRC | ≤ 0.2
160 | QWDS | ≤ 0.2
161 | TAYC | ≤ 0.2
162 | CSIA | ≤ 0.2
163 | KKER | ≤ 0.2
164 | CFMT | ≤ 0.2
165 | IDDF | ≤ 0.2
166 | ATMR | ≤ 0.2
167 | NYCG | ≤ 0.2
168 | GIPF | ≤ 0.2
169 | ETNR | ≤ 0.2
170 | TAKY | ≤ 0.2
171 | QYNA | 0.269
172 | SFSM | ≤ 0.2
173 | SFND | ≤ 0.2
174 | VCLL | ≤ 0.2
175 | LQNM | ≤ 0.2

Row | Variant | one-hybrid fitness for binding NBS DNA
176 | ECRD | ≤ 0.2
177 | HNKD | ≤ 0.2
178 | HYYR | ≤ 0.2
179 | MMCG | ≤ 0.2
180 | ENQR | ≤ 0.2
181 | MHSF | ≤ 0.2
182 | KLGI | ≤ 0.2
183 | RDMG | ≤ 0.2
184 | NYDF | ≤ 0.2
185 | CYLR | ≤ 0.2
186 | KRVP | ≤ 0.2
187 | NNAS | ≤ 0.2
188 | TLNM | ≤ 0.2
189 | FMAR | ≤ 0.2
190 | DDAG | ≤ 0.2
191 | HRED | ≤ 0.2
192 | TARP | ≤ 0.2
193 | PQLC | ≤ 0.2
194 | CPCS | ≤ 0.2
195 | MVCS | ≤ 0.2
